# PubChem BioAssay AID504444 (National Center for Advancing Translational Sciences (NCATS), 2011)
# Out of some 360,000 compounds screened, about 7,500 (2.1%) were called active. Not shown: some 20% with an inconclusive outcome. Calls follow the shape of the dose curve; as a rule, active = well fitted inhibition curve with a large enough effect; inconclusive = small, poorly fitted or top-dose-only effect, or effect the other way; inactive = flat fitted curve, though single readings scatter. This is a selection; strong and weak results do not stand in their true shares.
# Assay: Nrf2 qHTS screen for inhibitors; also: nearly all actives have a fitted effect of over 60% in size
# Conditions: A549 ARE-Fluc reporter, luciferase luminescence, 18-24 h; series mostly up to 46 µM; activity change, negative = inhibition: at the top concentration
# From the text: NIH Molecular Libraries Probe Production Network [MLPCN]
# NIH Chemical Genomics Center [NCGC]
# Assay Provider: Shyam Biswal, Johns Hopkins University
# Nrf2 is a transcription factor that maintains cellular redox homoestasis and protects cells from xenobiotics. Nrf2 binds to the antioxidant response element (ARE) to induce gene expression of a broad spectrum of genes that encode for antioxidants. […] Finding a small molecule that act as an inhibitor of Nrf2 function would represent a novel therapeutic target that could lead to improvement in survival of patients undergoing chemo- and/or radio- therapy.
# This is the Nrf2 activity measured in the luminescent read.
# 1. Shibata, T., et al., Genetic Alteration of Keap1 Confers Constitutive Nrf2 Activation and Resistance to Chemotherapy in Gallbladder Cancer. Gastroenterology, 2008.
# 2. Sjoblom, T., et al., The consensus coding sequences of human breast and colorectal cancers. Science, 2006. 314(5797): p. 268-74.
# NCGC Assay Protocol Summary:
# A concentration-response assay was performed with A549 ARE_Fluc cells which are suspended in 5% FBS OPTI-MEM. Five uL were dispensed into 1536-well white TC-treated plate using the Kalypsys dispenser to achieve a density of 5000 cells/well in all columns except column 1. The plate is incubated at 37deg C at 5% CO2 for 2 hours before 23 nL of compounds are added with the Kalypsys pin tool equipped with a 1,536-pin array containing 10-nL slotted pins (FP1S10, 0.457-mm diameter, 50.8 mm long; V&P Scientific). The control compounds Budesonide and Staurosporine are both added at a concentration of 2mM and Budesonide is also added as a 1:10 titration, starting at 200uM, to achieve dose-response. After an 18-24 hour incubation at 37deg C at 5% CO2, 5ul of medium is added to column 1. Afterwards 1ul of 5x of CellTiter-Fluor (Promega) is added to every well. The plate is then incubated at 37deg C at 5% CO2 for 30 minutes before they are read on the ViewLux (Perkin Elmer) for a fluorescent read Ex=405(10)/Em=525(10) for a 3 second exposure, 2x binning, and high gain. Then 3 uL of 3x BugLite is dispensed into all wells and the plate is incubated at ambient room temperature for 15 minutes. Afterwards another ViewLux read is performed using the clear filter to get a luminescent read with the settings of 40 second exposure, 2x binning, and high gain. Cytotoxicity is assessed through the first fluorescent read and then biochemical activity against Nrf2 is measured in the luminescent read.
# % is scaled to controls: 0 for no effect and ±100 for the full control effect; potency is read from the fitted curve at half-maximal effect.
SMILES,"activity change, negative = inhibition",Potency
CN(C)C1C(=O)C(C(N)=O)=C(O)C2(O)C(=O)C3=C(O)c4c(O)cccc4C(C)(O)C3C(O)C12 (centres undefined),inactive: 7.04%,
C[C@]12C[C@H](O)[C@@H](O)CC1=CCC1C2CC[C@@]2(C)C1CC[C@@H]2O (some centres undefined),inactive: -0.895%,
C[C@@H]1O[C@@H](Oc2c(-c3ccc(O)c(O)c3)oc3cc(O)cc(O)c3c2=O)[C@H](O)[C@H](O)[C@H]1O,inactive: 6.98%,
COc1cc2c(c(OC)c1OC)-c1ccc(O)c(=O)cc1[C@@H](NC(C)=O)CC2,inactive: 2.51%,
CCCNS(=O)(=O)c1ccc(OCC(=O)N2CCN(Cc3ccc4c(c3)OCO4)CC2)cc1,,active: 8.2 µM
O=C1NC(=O)N(Cc2ccccc2)C(=O)/C1=C/C=C/c1ccco1,inactive: -11.8%,
COC1=CC(=O)[C@]2(C=C1OC)OC[C@@H]1Oc3c(ccc4c3C=CC(C)(C)O4)C(=O)[C@@H]12,,active: 0.651 µM
COc1ccc(OCC(=O)N2CCN(Cc3ccc(SC)cc3)CC2)cc1,inactive: -8.69%,
Cc1ccc(-c2nn3c(C)nnc3c3ccccc23)cc1S(=O)(=O)NCCO,inactive: -22.3%,
O=[N+]([O-])c1ccc(C2C3C(c4ccccc4)=NC4(CCCCC4)N32)cc1 (centres undefined),inactive: -7.33%,
COC(=O)C1=C(c2ccc(F)cc2OCc2ccccc2)C[C@@H]2CC[C@H]1N2C(=O)NC1Cc2ccccc2C1,,active: 16.4 µM
O=C(O)CC1OCC=C2CN3CCC45C6=CC(=O)C(=O)C([N+](=O)[O-])=C6NC4C1C2CC35 (centres undefined),inactive: -12.5%,
Cc1ccccc1-n1c(/C=C/c2c(C)[nH]c3ccccc23)nc2ccccc2c1=O,,active: 20.6 µM
C[C@]12CC[C@H](O)C[C@H]1CC[C@@H]1C2CC[C@]2(C)[C@@H](C3=CC(=O)OC3)[C@@H](O)C[C@]12O (some centres undefined),,active: 1.84 µM
Cc1cc(C)cc(N2C(=O)NC(=O)/C(=C\c3cccn3-c3ccc(Cl)cc3)C2=O)c1,inactive: 6.43%,
COc1cc(C2c3cc4c(cc3CC3COC(=O)C32)OCO4)cc(OC)c1O (centres undefined),inactive: -5.04%,
CSc1ccc(CN2CCN(C(=O)COc3cccc(C)c3)CC2)cc1,inactive: -19.1%,
CN(C)P1(N(C)C)=Nc2c(c(N)nn2C)C(c2ccccc2)=N1,inactive: 15.2%,
Oc1ccccc1-[n+]1c(-c2ccccc2)cc(-c2ccccc2)cc1-c1ccccc1,inactive: -0.731%,
CCC12C=CCN3CCC4(c5cc(Br)c(OC)cc5N(C)C4C(O)(C(=O)OC)C1OC(C)=O)C32 (centres undefined),inactive: -22.9%,
C=C[C@H]1CN2CC[C@H]1C[C@H]2[C@H](O)c1ccnc2ccccc12,inactive: 19.1%,
NC(N)=NC(=O)c1nc(Cl)c(N)nc1N,,inactive
O=C(Nc1cccc(Cl)c1)c1cnc2sc(N3CCCC3)nn2c1=O,,active: 5.17 µM
O=C1NC2C(=CC(O)C(O)C2O)c2cc3c(cc21)OCO3 (centres undefined),,active: 2.06 µM
